# Assay results reported in the supplement of paper PMC8728848.
# This is one part of the list.
# B1: DrGal9 (Danio rerio) (protein)
# chain: MAFYQQPPYYNPRIPFSGPIQGGLQDGKSIIISGRVLPGANRFHVNLQCGSHSEANVALHFNPRYEDTDYVVNNSYLNRTWGSEERKYESPFAQGQTFTLQILVAQDKYKISTNGRHFMDYKHRIPFTQVDTVAVEGMVEVNSVAFQNPAGFIPPQAGYAPQYAVPPGCGFPAFPSAPNYTIPHKTVMNGGLHPGKNIVINGVVNPNAKSIIFNLCYRSGIAFHYNPRFDENVVVRNTNQMEKWGAEERFGGLPFHKGQPFQVTISCNPQHYNVFVNGKQEHTYKHRYTKLNDIDILEICGDLQLTSVQA
# Tests used:
# Experiment in all cases: glycan array binding signal (z-score within array); higher = stronger binding
# Conditions in all cases: glycan notation: IUPAC condensed, linker removed
# [1] = target: Neu5Ac(a2-3)Gal(b1-3)GlcNAc(b1-4)Gal(b1-4)Glc
# Summary of the method: (§1)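 Columns mapping to the same glycan were averaged after glycan names were converted to IUPAC-condensed notation. The data come from 3228 arrays in the Consortium for Functional Glycomics database, limited to those with an available protein sequence. Binding is reported as a within-array Z-score averaged across arrays of one protein sequence and across linkers.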
# [2] = target: Neu5Ac(a2-3)Gal(b1-3)GlcNAc(b1-6)GalNAc
# Summary of the method: as §1
# [3] = target: Neu5Ac(a2-3)Gal(b1-3)GlcNAc6S
# Summary of the method: as §1
# [4] = target: Neu5Ac(a2-3)Gal(b1-3)[Fuc(a1-4)]GlcNAc
# Summary of the method: as §1
# [5] = target: Neu5Ac(a2-3)Gal(b1-3)[Fuc(a1-4)]GlcNAc(b1-3)Gal(b1-3)[Fuc(a1-4)]GlcNAc
# Summary of the method: as §1
# [6] = target: Neu5Ac(a2-3)Gal(b1-3)[Fuc(a1-4)]GlcNAc(b1-3)Gal(b1-4)[Fuc(a1-3)]GlcNAc
# Summary of the method: as §1
# [7] = target: Neu5Ac(a2-3)Gal(b1-3)[GlcNAc(b1-6)]GalNAc
# Summary of the method: as §1
# [8] = target: Neu5Ac(a2-3)Gal(b1-3)[Neu5Ac(a2-6)]GalNAc
# Summary of the method: as §1
# [9] = target: Neu5Ac(a2-3)Gal(b1-3)[Neu5Ac(a2-6)]GlcNAc(b1-3)[Fuc(a1-3)[Gal(b1-4)]GlcNAc(b1-6)]Gal(b1-4)Glc
# Summary of the method: as §1
# [10] = target: Neu5Ac(a2-3)Gal(b1-3)]Neu5Ac(a2-3)Gal(b1-4)]GlcNAc
# Summary of the method: as §1
# [11] = target: Neu5Ac(a2-3)Gal(b1-4)Glc
# Summary of the method: as §1
# [12] = target: Neu5Ac(a2-3)Gal(b1-4)GlcNAc
# Summary of the method: as §1
# [13] = target: Neu5Ac(a2-3)Gal(b1-4)GlcNAc(b1-2)Man
# Summary of the method: as §1
# [14] = target: Neu5Ac(a2-3)Gal(b1-4)GlcNAc(b1-2)Man(a1-3)[GlcNAc(b1-4)][Neu5Ac(a2-3)Gal(b1-4)GlcNAc(b1-2)Man(a1-6)]Man(b1-4)GlcNAc(b1-4)GlcNAc
# Summary of the method: as §1
# [15] = target: Neu5Ac(a2-3)Gal(b1-4)GlcNAc(b1-2)Man(a1-3)[Neu5Ac(a2-3)Gal(b1-4)GlcNAc(b1-2)Man(a1-6)]Man(b1-4)GlcNAc(b1-4)GlcNAc
# Summary of the method: as §1
# [16] = target: Neu5Ac(a2-3)Gal(b1-4)GlcNAc(b1-2)Man(a1-3)[Neu5Ac(a2-3)Gal(b1-4)GlcNAc(b1-2)Man(a1-6)]Man(b1-4)GlcNAc(b1-4)[Fuc(a1-6)]GlcNAc
# Summary of the method: as §1
# [17] = target: Neu5Ac(a2-3)Gal(b1-4)GlcNAc(b1-2)Man(a1-3)[Neu5Ac(a2-6)Gal(b1-4)GlcNAc(b1-2)Man(a1-6)]Man(b1-4)GlcNAc(b1-4)GlcNAc
# Summary of the method: as §1
# [18] = target: Neu5Ac(a2-3)Gal(b1-4)GlcNAc(b1-2)[Neu5Ac(a2-3)Gal(b1-4)GlcNAc(b1-4)]Man(a1-3)[GlcNAc(b1-4)][Neu5Ac(a2-3)Gal(b1-4)GlcNAc(b1-2)[Neu5Ac(a2-3)Gal(b1-4)GlcNAc(b1-6)]Man(a1-6)]Man(b1-4)GlcNAc(b1-4)GlcNAc
# Summary of the method: as §1
# [19] = target: Neu5Ac(a2-3)Gal(b1-4)GlcNAc(b1-2)[Neu5Ac(a2-3)Gal(b1-4)GlcNAc(b1-4)]Man(a1-3)[GlcNAc(b1-4)][Neu5Ac(a2-3)Gal(b1-4)GlcNAc(b1-4)Man(a1-6)]Man(b1-4)GlcNAc(b1-4)GlcNAc
# Summary of the method: as §1
# [20] = target: Neu5Ac(a2-3)Gal(b1-4)GlcNAc(b1-2)[Neu5Ac(a2-3)Gal(b1-4)GlcNAc(b1-6)]Man(a1-6)[Neu5Ac(a2-3)Gal(b1-4)GlcNAc(b1-2)Man(a1-3)]Man(b1-4)GlcNAc(b1-4)GlcNAc
# Summary of the method: as §1
# [21] = target: Neu5Ac(a2-3)Gal(b1-4)GlcNAc(b1-2)[Neu5Ac(a2-3)Gal(b1-4)GlcNAc(b1-6)]Man(a1-6)[Neu5Ac(a2-3)Gal(b1-4)GlcNAc(b1-2)Man(a1-3)][GlcNAc(b1-4)]Man(b1-4)GlcNAc(b1-4)GlcNAc
# Summary of the method: as §1
# [22] = target: Neu5Ac(a2-3)Gal(b1-4)GlcNAc(b1-3)Gal
# Summary of the method: as §1
# [23] = target: Neu5Ac(a2-3)Gal(b1-4)GlcNAc(b1-3)Gal(b1-3)GlcNAc
# Summary of the method: as §1
# [24] = target: Neu5Ac(a2-3)Gal(b1-4)GlcNAc(b1-3)Gal(b1-4)GlcNAc
# Summary of the method: as §1
# [25] = target: Neu5Ac(a2-3)Gal(b1-4)GlcNAc(b1-3)Gal(b1-4)GlcNAc(b1-2)Man(a1-3)[Neu5Ac(a2-3)Gal(b1-4)GlcNAc(b1-3)Gal(b1-4)GlcNAc(b1-2)Man(a1-6)]Man(b1-4)GlcNAc(b1-4)GlcNAc
# Summary of the method: as §1
# [26] = target: Neu5Ac(a2-3)Gal(b1-4)GlcNAc(b1-3)Gal(b1-4)GlcNAc(b1-3)Gal(b1-4)GlcNAc
# Summary of the method: as §1
# [27] = target: Neu5Ac(a2-3)Gal(b1-4)GlcNAc(b1-3)Gal(b1-4)GlcNAc(b1-3)Gal(b1-4)GlcNAc(b1-2)Man(a1-3)[Neu5Ac(a2-3)Gal(b1-4)GlcNAc(b1-3)Gal(b1-4)GlcNAc(b1-3)Gal(b1-4)GlcNAc(b1-2)Man(a1-6)]GalNAc
# Summary of the method: as §1
# [28] = target: Neu5Ac(a2-3)Gal(b1-4)GlcNAc(b1-3)Gal(b1-4)GlcNAc(b1-3)GalNAc
# Summary of the method: as §1
# [29] = target: Neu5Ac(a2-3)Gal(b1-4)GlcNAc(b1-3)Gal(b1-4)GlcNAc(b1-3)[Neu5Ac(a2-3)Gal(b1-4)GlcNAc(b1-3)Gal(b1-4)GlcNAc(b1-6)]GalNAc
# Summary of the method: as §1
# [30] = target: Neu5Ac(a2-3)Gal(b1-4)GlcNAc(b1-3)Gal(b1-4)GlcNAc(b1-6)[Gal(b1-3)]GalNAc
# Summary of the method: as §1
# [31] = target: Neu5Ac(a2-3)Gal(b1-4)GlcNAc(b1-3)Gal(b1-4)[Fuc(a1-3)]GlcNAc
# Summary of the method: as §1
binder,measurement,setting,value
B1,glycan array binding signal (z-score),[1],-0.623
same,glycan array binding signal (z-score),[2],-0.117
same,glycan array binding signal (z-score),[3],-0.144
same,glycan array binding signal (z-score),[4],-0.401
same,glycan array binding signal (z-score),[5],-0.369
same,glycan array binding signal (z-score),[6],-0.319
same,glycan array binding signal (z-score),[7],-0.395
same,glycan array binding signal (z-score),[8],-0.38
same,glycan array binding signal (z-score),[9],-0.222
same,glycan array binding signal (z-score),[10],-0.373
same,glycan array binding signal (z-score),[11],0.1
same,glycan array binding signal (z-score),[12],-0.249
same,glycan array binding signal (z-score),[13],-0.371
same,glycan array binding signal (z-score),[14],0.144
same,glycan array binding signal (z-score),[15],0.99
same,glycan array binding signal (z-score),[16],0.313
same,glycan array binding signal (z-score),[17],0.136
same,glycan array binding signal (z-score),[18],0.563
same,glycan array binding signal (z-score),[19],0.353
same,glycan array binding signal (z-score),[20],-0.205
same,glycan array binding signal (z-score),[21],0.257
same,glycan array binding signal (z-score),[22],-0.061
same,glycan array binding signal (z-score),[23],-0.042
same,glycan array binding signal (z-score),[24],0.406
same,glycan array binding signal (z-score),[25],0.057
same,glycan array binding signal (z-score),[26],0.284
same,glycan array binding signal (z-score),[27],-0.067
same,glycan array binding signal (z-score),[28],-0.025
same,glycan array binding signal (z-score),[29],1.04
same,glycan array binding signal (z-score),[30],0.662
same,glycan array binding signal (z-score),[31],-0.371
